The values that follow come from the RNAGym collection of RNA variant scans (doi:10.1101/gad.245936.114).

To fix the notation:
B1: tRNA (parent)
chain: CUCUCGGUAGCCAAGUUGGUUUAAGGCGCAAGACUUUAAUUUAUCACUACGAAAUCUUGAGAUCGGGCGUUCGACUCGCCCCCGGGAGAUUUUUUCCUCGAGCAA

Variants at the floor of the assay are shown more often than the library holds them. Some results are limits rather than exact numbers.

The data set covers variants of B1. Description: nonsense suppression (GFP-seq) (ratio to wild type); higher = more function; SUP4oc tRNA, yeast GFP reporter sort-seq. In short, it runs like this:
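To measure nonsense suppression, tRNA variants from a library carrying ~3% random mutations were integrated into the yeast genome alongside RFP and a GFP ochre reporter under galactose control. Growth took place in raffinose/galactose medium supplemented with 80 mg/L adenine, followed by sorting into GFP/RFP bins and Illumina sequencing of each bin (phred ≥30). For each variant with ≥100 reads and ≥30 cells, the bin median GFP/RFP values were weighted by its estimated cell share per bin and referenced to the unmutated parent tRNA.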
As for U4A G28U C77G C83U, the nonsense suppression is no more than 0.026.
The same measure for G15C C64U G65U G86U: no more than 0.026.
Take C5A G7U G73A: the nonsense suppression was no more than 0.026.
For C3U A31G U63C G78U, the nonsense suppression was no more than 0.026.
The same measure for A14G G19U A23G A30G C75U C82U: no more than 0.026.
Under G6U G26U stands no more than 0.026; under C68G C82G, no more than 0.026.
Regarding C27A A62G, the nonsense suppression is no more than 0.026.
As to C27A A62C, the nonsense suppression is 0.349.
The same measure for C1A C64A: no more than 0.026; for G18C A23U A33G U58G A60C U76G C80U: no more than 0.026.
On to U17A C80G A89U, for which the nonsense suppression was no more than 0.026.
Consider G19A U20G C56A, for which the nonsense suppression is no more than 0.026.
The same measure for G61U A62U: 0.0397; for A23C G26U: no more than 0.026; for G6U U16C U35C: no more than 0.026.
Under A9C G73A stands 0.215.
In the case of C5G G78U, the nonsense suppression is 0.0283.
Under U2A A23U G67U stands no more than 0.026.
With U17G A24G U57A C80A, the nonsense suppression is no more than 0.026.
Under U57C G78C stands no more than 0.026; under U8A A30U U35G, no more than 0.026.
For G7A U70A A89C, the nonsense suppression is no more than 0.026.
The same measure for C12U A89C: no more than 0.026; for G32U G66U: no more than 0.026; for G26U U76G: no more than 0.026.
On to U16G A23U U35A C79G, for which the nonsense suppression is no more than 0.026.
C12A U55C C81A: the nonsense suppression was no more than 0.026.
Consider C1U U8G A14U C34G, for which the nonsense suppression is no more than 0.026.
Consider U20C U21G C27A G65C C83A, for which the nonsense suppression was no more than 0.026.
Regarding U16G G32C C81U, the nonsense suppression is no more than 0.026.
Regarding G15C C77G, the nonsense suppression is no more than 0.026.
Under C12A A31G stands 0.0261; under U21A U55A G61A C72G A74U, no more than 0.026; under G28C A60U U70C, no more than 0.026.
Consider C3A U71G C79G, for which the nonsense suppression was no more than 0.026.
For the variant G7U G69U G88A, the nonsense suppression is no more than 0.026.
The same measure for A14U G59C: no more than 0.026; for U2A C80A G84A: no more than 0.026; for A9U U21G U22C: no more than 0.026.
Turning to G25U U63A G86A, the nonsense suppression was no more than 0.026.
On to A24G A87G, for which the nonsense suppression was 0.0583.
The same measure for A14U U20C G26A A31G: no more than 0.026; for G28U U35G G61U: no more than 0.026.
For the variant C29A A31U U57A U58A A89C, the nonsense suppression is no more than 0.026.
Under A9C G19C U63C U71A C80G stands no more than 0.026; under C81A G85U, no more than 0.026; under G6U G61C, no more than 0.026.
For the variant C1U A9G C72A C75U, the nonsense suppression is no more than 0.026.
As for A23U C72U, the nonsense suppression was no more than 0.026.
For the variant C11A A30U, the nonsense suppression was no more than 0.026.
Consider G32U U58G C64G, for which the nonsense suppression was no more than 0.026.
On to U4A C79U, for which the nonsense suppression is 0.0353.
Consider G7C G15A G25C U70G, for which the nonsense suppression was no more than 0.026.
The same measure for U2A A89U: no more than 0.026; for G26C U35A: no more than 0.026; for G25U U58G: no more than 0.026.
For U4G U17C, the nonsense suppression was 0.45.
As to A13U U22C G78A C83U G86U, the nonsense suppression was no more than 0.026.
Consider G65C G84C, for which the nonsense suppression was no more than 0.026.
For the variant G15A U17C A33C U58A U70C G78C, the nonsense suppression was no more than 0.026.
Consider G7U C56U, for which the nonsense suppression is no more than 0.026.
As to G15C C56U, the nonsense suppression is no more than 0.026.
U2C G15A U17G: the nonsense suppression is no more than 0.026.
Turning to U17G G78C, the nonsense suppression was no more than 0.026.
Turning to G32C U71G, the nonsense suppression was no more than 0.026.
Under G15U C29U A31U stands no more than 0.026; under G15U G26C A62G G65U, no more than 0.026.
As for G7C C27A, the nonsense suppression is no more than 0.026.
Under G18C G86C stands no more than 0.026.
Turning to G7U U20C A33G A54U, the nonsense suppression was no more than 0.026.
With C3U G10C U57C, the nonsense suppression was no more than 0.026.
For A23U C27A, the nonsense suppression was no more than 0.026.
For A9C A13U G18C, the nonsense suppression was no more than 0.026.
For the variant C5U U17A G86A, the nonsense suppression was no more than 0.026.
The same measure for U4C A23C G25U U71G G86U: no more than 0.026.
Take G6C G59A: the nonsense suppression was no more than 0.026.
Regarding A14U A54C C68A G73C G84A, the nonsense suppression was 0.202.
For G32C A60G U63C G69A, the nonsense suppression was no more than 0.026.
The same measure for C72G G73A: 0.0319.
U2A U4C A62C G67U: the nonsense suppression is no more than 0.026.
The same measure for G10U U55A A60U: no more than 0.026.
As for C3U G19U A62C, the nonsense suppression was no more than 0.026.
As to A24G C79G, the nonsense suppression is no more than 0.026.
Consider G28A G32A, for which the nonsense suppression is no more than 0.026.
U4C A74C G85U: the nonsense suppression was no more than 0.026.
On to C5U C12G G59C, for which the nonsense suppression was no more than 0.026.
The same measure for A33U C77A: no more than 0.026; for C3U G10C A62C U71C: no more than 0.026; for G10C G18A A24G G69C: no more than 0.026.
In the case of G18C U20G G59C, the nonsense suppression is no more than 0.026.
Regarding C75G C77A, the nonsense suppression was no more than 0.026.
With G78A G88C, the nonsense suppression was 0.0845.
For C1U A31U A54U, the nonsense suppression was no more than 0.026.
Under U70A C75A stands no more than 0.026; under G7C A33U, no more than 0.026.
In the case of C1A C11A U63C C80A, the nonsense suppression was no more than 0.026.
Take A23G U63G G65C U71A: the nonsense suppression is no more than 0.026.
In the case of U8C G61C G73C, the nonsense suppression is no more than 0.026.
As for U71C G73C C81A, the nonsense suppression is no more than 0.026.
With U2G G19U C34G U71A C82U, the nonsense suppression is no more than 0.026.
Under A30G A31U stands no more than 0.026; under G18C A23C U55A G73A, no more than 0.026.
Turning to U8G A30U A54G C83G, the nonsense suppression is no more than 0.026.
For the variant C27A G66C, the nonsense suppression was no more than 0.026.
In the case of A23C U55G G86U, the nonsense suppression was no more than 0.026.
Consider C3A G7A G28A A31G, for which the nonsense suppression was no more than 0.026.
For the variant C1G G69U, the nonsense suppression is no more than 0.026.
On to C11U U17G G88C, for which the nonsense suppression was no more than 0.026.
In the case of G26C A31C C68U, the nonsense suppression was no more than 0.026.
Under C1A U70C stands no more than 0.026; under U35C C56U A62U, no more than 0.026; under C1U C3U C5A U17A, no more than 0.026.
Under G61A G84A stands no more than 0.026; under G15C A23G C34A G78C, no more than 0.026.
Turning to C27U G66C G67C G73A A87C, the nonsense suppression was no more than 0.026.
Consider C1A A62C U76C, for which the nonsense suppression is no more than 0.026.
Regarding G67C U71G, the nonsense suppression was no more than 0.026.
The same measure for A13U A30G U71G A87C: no more than 0.026; for C11A A87U: no more than 0.026.
A14C A33G U55G C79A: the nonsense suppression was no more than 0.026.
U35A A62G: the nonsense suppression is no more than 0.026.
Consider C5A C80A, for which the nonsense suppression was no more than 0.026.
The same measure for U20A G26C A31U C68A: no more than 0.026.
Turning to A54C C68G, the nonsense suppression was no more than 0.026.
G6U G18U C34U A87G: the nonsense suppression is no more than 0.026.
Consider C5U A9U G25C U35A G59U, for which the nonsense suppression is no more than 0.026.
For C1G A14G C80G, the nonsense suppression is no more than 0.026.
Regarding C29U U57C G61A C64A G65C G67C, the nonsense suppression was no more than 0.026.
Turning to C3U C64U G67U, the nonsense suppression is no more than 0.026.
As for A30U C56U U71A G88C, the nonsense suppression is no more than 0.026.
Turning to A14G C27U C29U U70G, the nonsense suppression was no more than 0.026.
Take C12U A62U C79A: the nonsense suppression was no more than 0.026.
As to G32U U55G A60C, the nonsense suppression was no more than 0.026.
Under U4G G28A G65A U71G A87C stands no more than 0.026; under U2C C56U, no more than 0.026.
With G15C A24U U58G, the nonsense suppression was no more than 0.026.
Under C12G U22G C27U stands no more than 0.026; under G6U G73C, no more than 0.026.
Take U8G C12U: the nonsense suppression is no more than 0.026.
On to A14C A31G C81A, for which the nonsense suppression is no more than 0.026.
Under G15U A23C C29A stands no more than 0.026; under A14C U17G, no more than 0.026; under A13G G26U G61U G65C, no more than 0.026.
For G67A U70C, the nonsense suppression was no more than 0.026.
Under G69C G86U stands no more than 0.026; under G25C C64U, no more than 0.026.
Under U4C G25A stands 0.162; under G28U A30C C34G, no more than 0.026.
Take G19U G26C: the nonsense suppression is no more than 0.026.
The same measure for U17G G19C U55A C81A G85C: no more than 0.026; for A30G: 1.11.
The same measure for C3A A24U: no more than 0.026; for U58G G65C C82G: no more than 0.026; for C3A U22A G32C C72G: no more than 0.026.
Regarding A24G A62U C83A, the nonsense suppression was no more than 0.026.
On to A31U G65C, for which the nonsense suppression was no more than 0.026.
Regarding C11A A13G A30U C81U, the nonsense suppression is no more than 0.026.
On to U21G A23G G69A C79U, for which the nonsense suppression was no more than 0.026.
As to G7C C79U, the nonsense suppression is no more than 0.026.
C12A U17A: the nonsense suppression is no more than 0.026.
With G19U U21G C34U, the nonsense suppression was no more than 0.026.
Take C11U A24G G26C U71A: the nonsense suppression is no more than 0.026.
Under U16C G26C A33U stands no more than 0.026; under U4A C77U, 0.0506.
Take U2G C75A C79G: the nonsense suppression was no more than 0.026.
For G25A G69C, the nonsense suppression was no more than 0.026.
